The supplement of paper PMC10338343
± gives the standard deviation. The full ranking holds about 6,600 sequences; the median of “pre-steady-state target cleavage rate” is about 0.07, and the highest 2% start at about 0.72. This is a selection; strong and weak results do not stand in their true shares.

Tested on: MIWI (PIWIL1) piRISC loaded with Kctd7 piRNA (30 nt)
Test: pre-steady-state target cleavage rate (min^-1); MIWI and MILI are mouse PIWI proteins and EfPiwi is from a freshwater sponge; tags in brackets are library labels; higher = faster piRNA-guided slicing of the target
Conditions: guide: Kctd7 piRNA 5'p-UGUUAAUCUCUCAGAGAAGGUGACAGUGAU; auxiliary factor: 500 nM mouse GTSF1
Procedure, shortened: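 Cleave-'n-Seq reactions paired 0.1 nM transcribed, DNA-blocked target RNA library with 1 nM active affinity-purified piRISC holding one synthetic guide, plus or minus 500 nM GTSF1 partner protein, in HEPES–potassium acetate buffer at 33 °C for 0–8 or 0–960 min. After sequencing of uncleaved targets and normalisation to depth and weakly complementary targets, the pre-steady-state cleavage rate was taken from a burst-and-steady-state fit. Three trials were pooled, and k3 was capped at 0.0001 min^-1.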

| Sequence | pre-steady-state target cleavage rate |
| --- | --- |
| AUCACUGUCACCUUGACUGAGAGAUUAAGA | 0.352 ± 0.087 |
| UAGUGUGUCACCUUCUCUGAGAGAAUAUCA | 0.0617 ± 0.019 |
| UAGUGUGUCACCUUCACUGAGAGAAUAACA | 0.0545 ± 0.011 |
| UAGUGUGUCACCUUCUCUGACAGAUUUACA | 0.224 ± 0.066 |
| AUCACUCACACCUUCUCUGAGAGAUUAUGA | 0.0681 ± 0.016 |
| UAGUGUGACACCAUCUCUGAGAGAUUAACA | 0.416 ± 0.028 |
| AUCACUGUCACCUCUCUGAGAGAUUAACA | 0.587 ± 0.041 |
| UACAGUGUCACCUUCUCUGAGAGAUUUACA | 0.321 ± 0.04 |
| UUCACUGUCACCUUCUCUGAGAGAUUAACC [g2:g29:cont:t1C] | 0.414 ± 0.025 |
| UAGUGUGUCACCUUCUCUGAGAGAUUAAGCA | 0.176 ± 0.022 |
| UAGUGACAGUGCUUCUCUGAGAGAGUAACA | 0.00669 ± 0.0015 |
| UAGUGAGUCUCCAUCUCUGAGAGAUUAACA | 0.196 ± 0.021 |
| UAGUGUGUCUCCUUCUCUGAGAGAUUAACA | 0.291 ± 0.03 |
| UAGUGUCUCACCUUCUGUGAGAGAUUAACA | 0.323 ± 0.022 |
| UACGACUGUCACCUUCUCUGAGAGAUUAACA | 0.746 ± 0.07 |
| UAGUGUGUCACCUACUCUGAGAGAAUAACA | 0.219 ± 0.044 |
| UAGUCUGUCACCUUCUCUGAGAGUUUAUCA | 0.191 ± 0.035 |
| AUCACUGUCACCUUCUCUGAGAGAUAAAGA | 0.0799 ± 0.019 |
| UAGUCGUGUCACCUUCUCUGAGAGAUUAACA | 0.712 ± 0.039 |
| AUCACUGUCACCUUCUCUCUCAGAUUAUGA | 0.00466 ± 0.0037 |
| UAGUGACAGUGGAAGAGACAGAAUUAACA | < 0.0001 |
| UACACACACACCUUCUCUGAGAGAUUAAGA | 0.117 ± 0.028 |
| UUCACUAUCACCUUCUCUGAGAGAUUAACA | 0.608 ± 0.033 |
| UAGUGAGUCAGGUUCUCUGAGAGAUUAUGA | 0.00592 ± 0.0026 |

| Sequence | pre-steady-state target cleavage rate |
| --- | --- |
| AUCACUGUCACCUUCUCUGAGAGUUUAAGA | 0.526 ± 0.13 |
| UUCACUGUCACCUUCUCUGAGAGAAAAACA | 0.143 ± 0.031 |
| UAGUGUGUUCACCUUCUCUGAGAGAUUAACA | 0.589 ± 0.037 |
| UAGUCUGUGUCCUUCUCUGAGAGAUUAACA | 0.317 ± 0.028 |
| UAGUCUGGUCACCUUCUCUGAGAGAUUAACA | 0.749 ± 0.046 |
| UAGUGUGUCAGCUUCUCUGAGACAUUAACA | 0.0195 ± 0.0039 |
| AUCACUGUCAGCAUCUCUGAGAGAUUAACA | 0.673 ± 0.045 |
| UACACUGUCACCUUCUCUGAUGAGAUUAACA | 0.0134 ± 0.0066 |
| UAGUGACUCACCUUCUCUGUGAGAUAUUGA | 0.00542 ± 0.0036 |
| UAGACUGUCACCUUCUCUGAAAGAUUAACA | 0.292 ± 0.02 |
| UAGUGUGUCACCUACUCUGAGAGAUUAAGA | 0.158 ± 0.021 |
| UAGUGAGAGUCCUUCUCUGAGAGAUUAACA | 0.145 ± 0.017 |
| AUCAGUGUCACCUACUCUGAGAGAUUAACA | 0.666 ± 0.043 |
| AUCACUGUCACCCUUCUCUGAGAGAUUAACA | 0.532 ± 0.028 |
| UAGUCUGUCACCUUGUCUGAGAGAUUAUCA | 0.144 ± 0.025 |
| UAGUCUGUCACCUUCUCUGAGAGACUAACA | 0.169 ± 0.028 |
| UAGUCUGUCACCCUCUCUGAGAGAUUAACA | 0.671 ± 0.038 |
| UAGUGAGUCACCUUCACUGAGACAUUAACA | 0.205 ± 0.036 |
| UAGACUGUCACCUAGUCUGAGAGAUUAUGA | 0.00667 ± 0.0039 |
| UAGUGUGUCACCAUCUCUGAGACAUUAACA | 0.169 ± 0.022 |
| UAGUGACAGUCCUUCUGUGUGAGAUUAACA | 0.0038 ± 0.0038 |
| UAGUCUGUGUCCUUCUCUGAGAGAUUAAGA | 0.0624 ± 0.011 |
| UAGUCUGUCACCUUCUCUGAGAGAUUUACA | 0.343 ± 0.039 |
| UAGUGAGUCACCUUCUCUGAGACAAUAACA | 0.0552 ± 0.011 |

| Sequence | pre-steady-state target cleavage rate |
| --- | --- |
| UAGUGAGUCACGUUCUCUGAGAGAUUUACA | 0.222 ± 0.03 |
| UACACUGUCACCUUCACUGAGAGAUUAUCA | 0.148 ± 0.026 |
| UAGUGACAGUCCUUCUCUGAGAGAUUAAUCA | 0.0204 ± 0.0045 |
| UAGACUCUCACCUUCUCUGAGAGAUUAACA | 0.431 ± 0.029 |
| UAGUGACACACCUUGACUGAGAGAUUAACA | 0.0105 ± 0.0029 |
| UAGACUGUCUGGUUCUCUGAGAGAUUAACA | 0.103 ± 0.012 |
| UAGACUGUCACCUUCUCUGUGAGAUUAAGA | 0.0951 ± 0.013 |
| AUCACUGUCACCCUCUCUGAGAGAUUAACA | 0.639 ± 0.04 |
| UAGUGACACACCUUCUCUGACAGAUUUACA | 0.0123 ± 0.0038 |
| UAGUCUGUCACCUUCUCAGAGACAUUAACA | 0.16 ± 0.02 |
| UUCACUCUCACCUUCUGUGAGAGAUUAACA | 0.114 ± 0.013 |
| UAGUGACAGUGCUUCUCUGAGAGAUUAACA [g2:g19:cont:t1A] | 0.0159 ± 0.0024 |
| UAGUGACACACCUACUCUGUGAGAUUAACA | 0.0531 ± 0.0085 |
| UAGUCUGUCACCUUCUCUGAGAGUAUAAGA | 0.01 ± 0.0047 |
| UAGUGACAGUGGAACUCUGAGAGAUCAACA | < 0.0001 |
| UAGUGUGACACCUUCUCUGAGAGAUUUACA | 0.284 ± 0.045 |
| UAGUCUGUCACCUUCUCUGAGAGAUUAUACA | 0.258 ± 0.035 |
| UUCACACUCACCUUCUCUGAGAGAUUAUGA | 0.104 ± 0.025 |
| UAGUGACACAGCUUCUCUGAGAGAUUUACA | 0.0581 ± 0.0086 |
| UAGACUGUCACCUUCUGUGAGAGAUUAUGA | 0.0716 ± 0.013 |
| UAGUGACUCACCUUGUCUGAGUGAUUAACA | 0.0162 ± 0.003 |
| UACACUGUCAGGAUCUCUGAGAGAUUAAGA | 0.0115 ± 0.0029 |
| UAGUCUGUCACCUUAUCUGAGAGAUUAACA | 0.451 ± 0.023 |
| UUCUGUGUCACCUUCUCUGAGAGAUUUUGA | 0.152 ± 0.03 |
